# Data taken from the BET-seq Pho4 binding data (Le et al. 2018).
# The list shows a part of the results. The energies were worked out here from pooled read counts, against the library average; single values are noisy.
# Target: T1, Pho4 (S. cerevisiae) (UniProt P07270)
# T1 sequence: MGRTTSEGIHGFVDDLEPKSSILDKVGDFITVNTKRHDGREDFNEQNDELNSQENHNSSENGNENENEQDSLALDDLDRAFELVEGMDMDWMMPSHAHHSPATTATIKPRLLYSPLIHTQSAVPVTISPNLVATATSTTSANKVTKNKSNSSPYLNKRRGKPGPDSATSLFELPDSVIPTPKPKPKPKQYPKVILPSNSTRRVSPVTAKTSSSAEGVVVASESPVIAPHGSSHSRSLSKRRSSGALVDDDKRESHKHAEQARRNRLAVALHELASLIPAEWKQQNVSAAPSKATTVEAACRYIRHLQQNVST
# Experiment: relative binding free energy (BET-seq); higher = weaker binding
# Conditions: reference: library average
row,Sequence,relative binding free energy
1,GCAGGCACGTGAGAGT,0.24 kcal/mol
2,ATTAGCACGTGTGGGC,0.06 kcal/mol
3,TTAGACACGTGAAGTG,0.2 kcal/mol
4,AGTCTCACGTGTGGTG,0.13 kcal/mol
5,GGTGGCACGTGCAGCT,-0.06 kcal/mol
6,TCTGTCACGTGCGTAA,0.34 kcal/mol
7,AAGGCCACGTGGGGGT,-0.29 kcal/mol
8,GAGCGCACGTGTTAGG,-0.03 kcal/mol
9,TTGGGCACGTGAATTT,0.22 kcal/mol
10,ATGCGCACGTGATGAG,-0.02 kcal/mol
11,TGTGACACGTGTGTAC,0.05 kcal/mol
12,ATCGGCACGTGATGGC,0.09 kcal/mol
13,TGTTCCACGTGTAAGA,0.11 kcal/mol
14,AGTGGCACGTGTTTTT,-0.03 kcal/mol
15,TGTCACACGTGGGAGG,0 kcal/mol
16,AGGGTCACGTGCTGAG,0.04 kcal/mol
17,GGGTTCACGTGTGCGG,0.24 kcal/mol
18,TAACTCACGTGCGGGG,0.15 kcal/mol
19,GGTCGCACGTGTTAGT,0.08 kcal/mol
20,ATTTTCACGTGCGTAG,0.2 kcal/mol
21,AGTTTCACGTGGAGAA,0.28 kcal/mol
22,TAATTCACGTGGAGAT,0.35 kcal/mol
23,GTAGACACGTGGGCAG,-0.13 kcal/mol
24,TCATGCACGTGGGTGA,0.02 kcal/mol
25,AAAAACACGTGTGTGG,0.14 kcal/mol
26,GATATCACGTGTAATT,0.18 kcal/mol

row,Sequence,relative binding free energy
1,GTCGACACGTGTTGGA,0.21 kcal/mol
2,ATTTTCACGTGAGTCA,0.31 kcal/mol
3,TTGGGCACGTGGTATT,-0.07 kcal/mol
4,CGGTTCACGTGATGTG,0.29 kcal/mol
5,GTAGTCACGTGCATTG,0.09 kcal/mol
6,AGTGGCACGTGCTATG,-0.13 kcal/mol
7,GGCCTCACGTGGAGTT,0.48 kcal/mol
8,GTGGGCACGTGCGTAT,-0.06 kcal/mol
9,GGTGTCACGTGAGGCA,0.19 kcal/mol
10,ATTTTCACGTGTATCG,0.26 kcal/mol
11,CGCGGCACGTGATAGT,0.13 kcal/mol
12,GATTACACGTGATGGA,0.38 kcal/mol
13,ATGATCACGTGTTTGC,0.08 kcal/mol
14,TGGTACACGTGAGGAA,0.32 kcal/mol
15,TAGCTCACGTGTGGGA,0.28 kcal/mol
16,ATAGTCACGTGGCGCG,0.01 kcal/mol
17,TGAGTCACGTGGATGC,0.07 kcal/mol
18,GTCTTCACGTGTAGGA,0.33 kcal/mol
19,TGGCTCACGTGAGGGA,0.32 kcal/mol
20,AAAGTCACGTGAGGGG,0.21 kcal/mol
21,GGGGTCACGTGTAAGA,0.21 kcal/mol
22,TGTGTCACGTGATTTA,0.28 kcal/mol
23,TGCGTCACGTGGAGTA,0.12 kcal/mol
24,ATTTTCACGTGTACTA,0.18 kcal/mol
25,GGTCTCACGTGGCGGA,0.4 kcal/mol
26,ATGGTCACGTGTCGAA,0.07 kcal/mol

row,Sequence,relative binding free energy
1,TGCAGCACGTGGATTG,-0.16 kcal/mol
2,ATTAGCACGTGTCAGG,-0.06 kcal/mol
3,TGGTTCACGTGTTGGT,0.34 kcal/mol
4,GGTACCACGTGAGGGT,0.13 kcal/mol
5,GTCGGCACGTGTATTT,0.17 kcal/mol
6,GTGGACACGTGCGAGA,0.06 kcal/mol
7,ATGGCCACGTGTATGT,-0.07 kcal/mol
8,CATGTCACGTGAAGGG,0.31 kcal/mol
9,CTTTACACGTGAGGGT,0.36 kcal/mol
10,TCGCCCACGTGGGGGG,-0.32 kcal/mol
11,TGTCTCACGTGTAATT,0.22 kcal/mol
12,GGTTCCACGTGAGGAT,0.27 kcal/mol
13,ATGGGCACGTGTGGTG,-0.05 kcal/mol
14,TTGCACACGTGTTGCG,0.01 kcal/mol
15,TGTGACACGTGCGTCT,-0.02 kcal/mol
16,AAAATCACGTGGGTAG,-0.05 kcal/mol
17,ATGAGCACGTGTGCAG,-0.21 kcal/mol
18,TAGGACACGTGAGTTT,0.35 kcal/mol
19,TAAGACACGTGTTTTA,-0.04 kcal/mol
20,GTGTGCACGTGTGGAA,0.09 kcal/mol
21,CGGTGCACGTGTGCGG,-0.12 kcal/mol
22,GTCATCACGTGGTTGG,0.19 kcal/mol
23,TCTGTCACGTGAGTCG,0.33 kcal/mol
24,GACGGCACGTGTTGAT,0.11 kcal/mol
25,GGGGGCACGTGAATCT,0.25 kcal/mol
26,GTTTCCACGTGATGTG,0.28 kcal/mol

row,Sequence,relative binding free energy
1,GTTTTCACGTGGGAGT,0.33 kcal/mol
2,TATAACACGTGAGTGG,0.16 kcal/mol
3,TCTTACACGTGTTGGG,0.2 kcal/mol
4,AGCGACACGTGGTGAG,-0.03 kcal/mol
5,TTGATCACGTGTTCAA,0.21 kcal/mol
6,TTATTCACGTGGGTTC,0.05 kcal/mol
7,ATTGTCACGTGTCTGG,0 kcal/mol
8,ATCTACACGTGGGCGT,-0.01 kcal/mol
9,GTATTCACGTGACTAG,0.41 kcal/mol
10,AGTGACACGTGCTAGG,-0.12 kcal/mol
11,AATAGCACGTGAAGGG,0.23 kcal/mol
12,TATTACACGTGTGTGC,0.19 kcal/mol
13,CGCTGCACGTGGTTTT,-0.04 kcal/mol
14,TGAGTCACGTGGAATA,0.09 kcal/mol
15,GGTTTCACGTGGTAAG,0.32 kcal/mol
16,TTATACACGTGCTTGT,0.07 kcal/mol
17,GTCAGCACGTGGTATA,0.04 kcal/mol
18,TTTGTCACGTGGGGGT,0.04 kcal/mol
19,AGTCTCACGTGGTGCG,0.04 kcal/mol
20,TGAGACACGTGGAGTA,-0.06 kcal/mol
21,TGTGTCACGTGGAAAT,0.13 kcal/mol
22,AGACTCACGTGTGTAT,0.24 kcal/mol
23,TCTTACACGTGTGGTA,-0.01 kcal/mol
24,GGGGGCACGTGTAGTC,-0.03 kcal/mol
25,TGGATCACGTGGCGGG,0.05 kcal/mol
26,TGTAACACGTGTTGAG,-0.04 kcal/mol

row,Sequence,relative binding free energy
1,TTTTCCACGTGGAGTT,0.17 kcal/mol
2,ATGTTCACGTGAAATG,0.49 kcal/mol
3,GGTTACACGTGTATAG,0.17 kcal/mol
4,GGGTTCACGTGACTGG,0.41 kcal/mol
5,TATGGCACGTGCTGGA,-0.23 kcal/mol
6,TGATTCACGTGTAAGA,0.27 kcal/mol
7,GGAAACACGTGGATTG,0.06 kcal/mol
8,TTACGCACGTGGGTAG,-0.19 kcal/mol
9,GTTGTCACGTGGGTCT,0.08 kcal/mol
10,GTACGCACGTGGATGT,-0.04 kcal/mol
11,GCTTACACGTGTGGGT,0.07 kcal/mol
12,GTGTTCACGTGCGTAT,0.11 kcal/mol
13,ATGGTCACGTGTGTCC,0.18 kcal/mol
14,AGGGACACGTGGGAAA,0.09 kcal/mol
15,TGAGACACGTGTGGGA,0.09 kcal/mol
16,ATTCTCACGTGTTGAA,0.29 kcal/mol
17,TGGGTCACGTGCAACG,0.32 kcal/mol
18,TGGCACACGTGGGTGA,-0.13 kcal/mol
19,ATTTACACGTGTAGAA,0.19 kcal/mol
20,GTAATCACGTGGTGGA,0.08 kcal/mol
21,TTGTCCACGTGGGGCT,-0.26 kcal/mol
22,GCTGGCACGTGTGAAG,0.02 kcal/mol
23,GATTTCACGTGACGTG,0.59 kcal/mol
24,GTTGACACGTGAGTGC,0.3 kcal/mol
25,AATGGCACGTGATGAA,0.13 kcal/mol
26,GTTCTCACGTGTTGAG,0.29 kcal/mol

row,Sequence,relative binding free energy
1,AGTTGCACGTGTGGTT,0.02 kcal/mol
2,CAGATCACGTGTTAGT,0.24 kcal/mol
3,TAGTCCACGTGTGTGC,0.07 kcal/mol
4,TTGCTCACGTGGTAAG,0.14 kcal/mol
5,CATTTCACGTGGTTAG,0.18 kcal/mol
6,TATGTCACGTGCATAT,0.05 kcal/mol
7,GAGTTCACGTGAGTGT,0.4 kcal/mol
8,CGTGGCACGTGAATTG,0.2 kcal/mol
9,GGTAACACGTGAGATT,0.37 kcal/mol
10,TTTTGCACGTGAATAA,0.15 kcal/mol
11,TGGGGCACGTGCAGAT,-0.05 kcal/mol
12,TTCGACACGTGTTATG,0.01 kcal/mol
13,CAGGGCACGTGGTGAG,-0.22 kcal/mol
14,GGTTACACGTGGGTCT,-0.19 kcal/mol
15,ACGTGCACGTGTTGCG,0.03 kcal/mol
16,TGGGTCACGTGCATTA,0.13 kcal/mol
17,GGAAACACGTGTTTGG,-0.01 kcal/mol
18,ACTTGCACGTGAAGGT,0.13 kcal/mol
19,TGGGACACGTGCTGTT,-0.09 kcal/mol
20,GCGGTCACGTGGAAAT,0.35 kcal/mol
21,CGTTGCACGTGGGACG,-0.01 kcal/mol
22,CATTACACGTGAGTTG,0.2 kcal/mol
23,CAGAGCACGTGTAGGT,-0.16 kcal/mol
24,TGCTACACGTGGATAT,0.29 kcal/mol
25,TCAAGCACGTGGTTAG,-0.16 kcal/mol
26,CGTGTCACGTGAGGTG,0.27 kcal/mol

row,Sequence,relative binding free energy
1,TATCGCACGTGTGGGG,-0.05 kcal/mol
2,CAGTGCACGTGGGTTA,-0.27 kcal/mol
3,CTGGACACGTGGTGAT,0.02 kcal/mol
4,TTCGACACGTGGGGGG,-0.06 kcal/mol
5,GGTTACACGTGGAGCT,0.17 kcal/mol
6,AGAATCACGTGATGTT,0.28 kcal/mol
7,AGAATCACGTGATTTT,0.22 kcal/mol
8,TACCTCACGTGGGGGG,0.08 kcal/mol
9,TATAACACGTGTGAGA,0.07 kcal/mol
10,TAATTCACGTGAGTGG,0.54 kcal/mol
11,CTTGTCACGTGTAATG,0.21 kcal/mol
12,AGGTTCACGTGCAGTT,0.29 kcal/mol
13,GGTATCACGTGCGTGG,0.11 kcal/mol
14,GGAGGCACGTGCGGCT,-0.05 kcal/mol
15,TGGGTCACGTGAGTCC,0.32 kcal/mol
16,TGTACCACGTGGCGTT,-0.18 kcal/mol
17,TTTCGCACGTGGCGTT,-0.17 kcal/mol
18,AAGGACACGTGGGTTT,-0.02 kcal/mol
19,GGGGCCACGTGAAAGT,0.12 kcal/mol
20,TTGTTCACGTGAGACT,0.41 kcal/mol
21,GGATTCACGTGAGGTC,0.55 kcal/mol
22,GTTTTCACGTGATGCT,0.33 kcal/mol
23,ATGAACACGTGTTGGG,0.06 kcal/mol
24,CGGTACACGTGGCGTG,-0.1 kcal/mol
25,GGGAGCACGTGGGGCA,-0.49 kcal/mol
26,TGGTGCACGTGATCGT,-0.09 kcal/mol

row,Sequence,relative binding free energy
1,GGCCGCACGTGGGTAG,-0.07 kcal/mol
2,TGTATCACGTGATTTG,0.22 kcal/mol
3,TGGCTCACGTGCGAGG,0.27 kcal/mol
4,ATGTCCACGTGTATGG,-0.08 kcal/mol
5,ATAGCCACGTGTGTAG,-0.1 kcal/mol
6,GGCTGCACGTGGGCAT,-0.11 kcal/mol
7,GAAAGCACGTGAGTGT,0.39 kcal/mol
8,TCGAGCACGTGGGTTT,-0.11 kcal/mol
9,TAGCGCACGTGTTGGC,0.03 kcal/mol
10,TGGAACACGTGGGATT,0 kcal/mol
11,AGCAGCACGTGGGATG,-0.2 kcal/mol
12,GCTGGCACGTGGGTCG,-0.24 kcal/mol
13,GTGCACACGTGGGTTG,-0.19 kcal/mol
14,GGCTTCACGTGAAAGG,0.54 kcal/mol
15,TTGTCCACGTGGTTAA,0 kcal/mol
16,CTTGACACGTGGATGG,-0.05 kcal/mol
17,TTGAGCACGTGAGTCG,0.24 kcal/mol
18,ATGTTCACGTGAAATA,0.28 kcal/mol
19,GCGTTCACGTGGGCTG,0.28 kcal/mol
20,GCATGCACGTGAATGG,0.35 kcal/mol
21,AAGGACACGTGATTGG,0.23 kcal/mol
22,TGATGCACGTGGACGT,-0.11 kcal/mol
23,GTTAGCACGTGGTCTG,-0.19 kcal/mol
24,GAGGCCACGTGGAGGG,-0.05 kcal/mol
25,GACTGCACGTGCGGTG,0.02 kcal/mol
26,TGGCTCACGTGAGTAT,0.3 kcal/mol

row,Sequence,relative binding free energy
1,TTAAACACGTGGTAGT,0.08 kcal/mol
2,ATAGGCACGTGTGTAC,-0.2 kcal/mol
3,GCTGACACGTGTGGTG,0.1 kcal/mol
4,TGTCTCACGTGAAGGT,0.21 kcal/mol
5,AAGTACACGTGATGGG,0.28 kcal/mol
6,TCGTGCACGTGGTTTC,-0.03 kcal/mol
7,TTGAGCACGTGGTTCA,-0.09 kcal/mol
8,CGTTGCACGTGGGTCT,-0.14 kcal/mol
9,AGGTACACGTGGATGG,0.01 kcal/mol
10,CCAGTCACGTGGGGTG,-0.18 kcal/mol
11,AGATGCACGTGTAGTT,-0.08 kcal/mol
12,TGTCTCACGTGATTTT,0.34 kcal/mol
13,TCCGGCACGTGGTGTT,-0.17 kcal/mol
14,TGGTCCACGTGAGGGT,0.18 kcal/mol
15,TAGGGCACGTGGTATC,-0.15 kcal/mol
16,CGGTCCACGTGGGGGA,-0.25 kcal/mol
17,TCAGGCACGTGGGTCA,-0.19 kcal/mol
18,GTCTGCACGTGAGGGC,0.28 kcal/mol
19,ATCTGCACGTGCATGG,0.02 kcal/mol
20,GTACGCACGTGGGGCG,-0.13 kcal/mol
21,TGTCGCACGTGGTATT,-0.16 kcal/mol
22,GTCGGCACGTGATTGG,0.03 kcal/mol
